According to PubChem BioAssay AID1814 (Broad Institute, 2009):
About 22,000 (7.3%) of roughly 300,000 compounds were called active. The inconclusive results got no clear call from the source; some entries with a clear call stand among them for comparison. Cut-off read from the data, not from the text of the source: active = activity score below about -60%; inconclusive = mostly about -28% to -61%; inactive = positive scores.

test: Activators via SNCA 5'UTR binding, MLPCN (AID 1814); conditions: alpha-synuclein 5'UTR reporter, activators screen; hits give low values; tested at 7.5 µM

Activity score, active:
COC(=O)c1ccc(COC(=O)c2nn(C)c(=O)c3ccccc23)cc1 -64.3%, CCOC(=O)COc1cccc2c(=O)n(CC(=O)NCCc3ccccc3)ccc12 -72.5%, O=C(NN=C1C2CC3CC(C2)CC1C3)c1cccs1 -86.8%, Fc1ccc(-c2csc(-c3ccc(C4SCCS4)cc3)n2)cc1F -125%

Activity score, inconclusive:
CC(=O)OCCNc1cc(SCc2ccco2)c2nonc2c1[N+](=O)[O-] -54.3%, CCC(=O)c1cc2c(cc1NC(=O)c1ccc(C)cc1)OCCO2 -49%, O=C(c1cc(COc2ccc(F)cc2Cl)on1)N1CCCC(OCc2cccnc2)C1 (stereo unspecified) -38.9%, Cc1nc2ccccc2c2oc(C(=O)NCCCN3CCC(C)CC3)cc12 -53.7%, COc1ccccc1C(=O)CSc1nccn1C -61.1%, COC(=O)c1ccccc1C(=O)c1ccc2c(c1)NC(=O)CO2 -47%, CC(=O)c1cnn(-c2cc(Oc3ccc(F)cc3)ncn2)c1C -41.1%, CCOC(=O)/C(=C\c1cccc(O)c1)c1nc2sc(C)c(C)c2c(=O)[nH]1 -46.6%, O=C(CC(Nc1cccc(Cl)c1Cl)C(=O)O)c1ccccc1 (stereo unspecified) -46.7%, c1ccc(-c2cn3c(n2)SCC3)cc1 -38%, CSc1ccccc1-c1nnc(-c2ccccc2)o1 -60.9%, c1ccc(-c2nc(Sc3ncnc4c3cnn4-c3ccccc3)n[nH]2)cc1 -46.7%, Cn1c(SCCN2CCOCC2)nc2sc3c(c2c1=O)CCCC3 -42.8%, Fc1ccccc1SCc1nnc(-c2ccccc2Br)o1 -49%, CCOC(=O)c1[nH]c2ccccc2c1NC(=S)Nc1cccc(C)c1C -43.2%, COc1ccc(NC(=O)CCSc2nc(C)cs2)cc1 -54.9%

Activity score, inactive:
Oc1c(C(Nc2nc3ccccc3s2)c2ccco2)ccc2cccnc12 (stereo unspecified) 65.8%, C/C(=N\NC(=O)c1ccccc1)c1nc2ccccc2n1C 62.3%, COc1ccc(CCn2c(C3CCCCC3)nc3c(c(=O)c4ccccc4n3C)c2=O)cc1 75%, O=C(Nc1ccc2c(c1)OCCO2)NC1(C(F)(F)F)Oc2ccccc2O1 62.5%, CCN(CC)CCOC(=O)C(Cc1ccco1)Cc1cccc2ccccc12 (stereo unspecified) 104%, Cc1cc(C(=O)N/N=C/c2cc(Br)cc(Br)c2OC(=O)c2cccc(F)c2)n[nH]1 70%
